Experimental data: ChEMBL document CHEMBL4888484, “Replenishing the malaria drug discovery pipeline: Screening and hit evaluation of the MMV Hit Generation Library 1 (HGL1) against asexual blood stage Plasmodium falciparum ,using a nano luciferase reporter read-out” (2022)
About 540 (0.36%) of roughly 150,000 compounds showed an effect of 50% or more. This is one part of the list.

What follows are compounds tested on Plasmodium falciparum (assay: Primary screen in NF54 nanoGlo assay, in single point, at 2uM, 72h; a lower Z score goes with more inhibition). Details: timepoint 72 hour.
Type: functional, Erythrocyte

Structure (SMILES) | % Inhibition [%] | Z score
O=S(=O)(Nc1ccc2c(n1)CCCC2)c1ccnn1C1CCC1 | -4 | 0.52
Cc1nc(C)c(CC(=O)Nc2ccccc2C)c(=O)[nH]1 | -7 | 1.4
Nc1ccn2ncc(C(=O)N[C@H]3CCOCC34CCCC4)c2c1 | 7 | -1.38
COc1cc(C(F)(F)F)c(Cl)cc1N | -20 | 2.55
COc1cc2c(cc1CN1CCC(CNC(=O)[C@@H]3CCCO3)CC1)OCCCO2 | -11 | 1.34
O=C(Nc1ccc(N2CCN(c3ccccc3)CC2)nc1)[C@@H]1CCCO1 | 9 | -1.26
COc1ccc([C@@H](N)CN2CCCC2)cc1 | -13 | 1.49
CCOC(=O)[C@H]1CCCN(C(=O)CN2C(=O)COc3ccc(S(=O)(=O)N4CCCCC4)cc32)C1 | -15 | 1.48
CC(C)Cn1nc2n(c1=O)[C@H](C(=O)N1CCc3ccccc3C1)CCCC2 | -7 | 0.91
Cc1ccc(CCC(=O)N2CC(N3C(=O)CCC3=O)C2)cc1F | 0 | -0.05
Cc1cccc(CCn2ccc3ncccc3c2=O)n1 | -20 | 1.97
O=C(Nc1ccc2c(c1)OCCO2)Nc1nnc(N2CCCC2)s1 | -15 | 2.77
O=C(c1cccc(-c2cn[nH]c2)c1)N1[C@H]2CCNC[C@@H]1CC2 | -6 | 1.04
Cc1ccc(CCN2C(=O)[C@@H]3CCCN3C2=O)cc1 | -9 | 0.79
O=C(NC1CCOCC1)c1ccc2c(c1)n(CC1CC1)c(=O)n2C1CCCCC1 | 4 | -0.43
CC(C)n1cnc2cc(CNC(=O)Cc3ccc(F)cc3)ccc21 | 2 | -0.18
Cn1cc(S(=O)(=O)N2CC(=O)Nc3cccc4cccc2c34)cn1 | 6 | -0.64
N#Cc1ccc(NCc2ccc(S(=O)(=O)N3CCCC3)cc2)cn1 | -7 | 0.61
O=C(NCCc1cc(F)ccc1F)N1CCCC(C2CCCCO2)C1 (stereo not given) | -1 | 0.19
COc1cccc(Cc2nc(-c3cccc(-c4ccn[nH]4)c3)no2)c1 | -3 | 0.45
O[C@@]1(c2cc(-c3cccs3)no2)CCOC1 | -8 | 1.04
CN(Cc1ccno1)Cc1ccc(F)cc1F | -1 | 0.15

Structure (SMILES) | % Inhibition [%] | Z score
N/C(CC(=O)Nc1ccccc1Cl)=N\O | -6 | 0.77
Cc1cc(F)c(CNC(=O)[C@H]2CCc3nncn3CC2)c(F)c1 | 10 | -1.84
C=CCn1cc(CN2CCc3[nH]cnc3[C@H]2c2ccnc3ccccc23)cn1 | 14 | -2.49
COc1ccc(C(=O)N2CCCCCNC(=O)[C@@H]3CCCC[C@@H]32)c(OC)c1 | -7 | 1.3
COc1ccc(F)cc1S(=O)(=O)N1CC[C@H](c2ccsc2)C1 | 0 | 0
Nc1c2c(-c3ccccc3F)nc(NCCOc3ccccc3)nc2nn1-c1ccc(Cl)c(Cl)c1 | 11 | -1.34
COC1(c2cnnn2C)CN(c2nc(C)nc3c2cnn3C)C1 | 4 | -0.37
COc1ccc(-c2noc(-c3ccc(N(C)Cc4ccccc4)nc3)n2)cc1 | -1 | 0.15
O=C(c1ccco1)N1CCCCC[C@@H]1CN1CCOCC1 | -10 | 1.55
C[C@H]1C(=O)Nc2ccccc2CN1Cc1noc2c1COCC2 | 6 | -1.14
CC(=O)N1C[C@H](O)C[C@@H]1C(=O)N1CCN(Cc2ccccc2)C2(CCCCC2)C1 | -14 | 1.6
O=S(=O)(Cc1ccccc1F)N1CC(c2ccccc2)C(c2ncon2)C1 (stereo not given) | -9 | 1.59
O=C1N[C@]2(CCOC2)C(=O)N1Cc1cc(Cl)ccc1Cl | -17 | 2.1
COc1ccc(-c2c3cnn(C(C)C)c3nc3[nH]c(=O)sc23)cc1O | -2 | 0.3
CC[C@H]1[C@H](NC(=O)c2cncs2)[C@H]2CCO[C@H]21 | -8 | 1.09
CNC(=O)Cc1noc(C[C@H]2CCC(C)(C)c3ccccc32)n1 | 6 | -0.81
CC(C)n1cc(NC(=O)N[C@@H](C)Cn2cncn2)cn1 | -9 | 1.12
CCC(CC)CN(CC)C(=O)c1scnc1C | -4 | 0.45
CN1N=C(c2ccc3c(c2)NC(=O)CO3)C[C@H]1c1cccc(C#N)c1 | -15 | 2.06
O=C(NCCN1CCOCC1)c1cc2cc(NS(=O)(=O)c3ccc(F)cc3)ccc2n1Cc1ccc(F)cc1 | -16 | 3.07
OCCN1CCN(CCn2cc(Cl)cn2)CC1 | -7 | 1.43
Cc1nc([C@H]2CCOC2)cc(N(C)Cc2noc(C3CCCC3)n2)n1 | -18 | 1.93

Structure (SMILES) | % Inhibition [%] | Z score
COCC(C)=CCn1nnnc1-c1ccccn1 | -4 | 0.65
O=C(c1cnn2c1CCC2)N1CCN(c2ccc(F)cn2)CC1 | -5 | 0.74
CCOc1ccc(CN2CC[C@@]3(CCCN(Cc4cccnc4)C3=O)C2)cc1 | -2 | 0.4
CN1CCCC1C1CCCN1C(=O)C1CCc2ccccc21 (stereo not given) | -12 | 2.1
COCc1nc(-c2csc3c2CCCC3)n(CCO)n1 | -4 | 0.83
Cn1ccc(NC(=O)N2CCN(Cc3csc(C(C)(C)C)n3)CC2)n1 | -12 | 1.72
COc1cc(NC(=O)Cn2nc(C)c3c(C)onc3c2=O)cc(OC)c1 | -14 | 1.38
O=C(N[C@H]1CCC12CCCC2)C12CCCN1CCC2 | -13 | 2
CCC(=O)Nc1ccc(Cl)cc1F | -6 | 0.64
Cc1cn2nc(C(=O)N3CCN(c4ccccc4)CC3)cc2c(N2CCCC2)n1 | -4 | 0.49
CN1CCN(C(=O)CNCc2cnc(N3CCOCC3)nc2)CC1 | -17 | 3.14
CCc1cnc(NCc2c[nH]c(C(=O)OC)c2)s1 | -3 | 0.37
CCOc1ccccc1NC(=O)c1c(NCc2cccs2)sc2c1CCCCC2 | 11 | -1.73
CCc1ccccc1OC1CN(C(=O)NCCCc2nnc3ccccn23)C1 | -22 | 2.22
Cc1ccccc1OCC(=O)N1CC[C@H](n2c(=O)[nH]c3cncnc32)C1 | -18 | 1.84
CC(C)NC(=O)[C@@H]1C[C@@H](NC2CCCCCC2)CN1Cc1ccc2ccccc2c1 | -10 | 1.37
Cc1cc(NC(=O)CC2(CN)CCCCC2)nn1C | 3 | -0.38
CCn1c(-c2cc(NC(=O)COc3ccc(Cl)cc3)[nH]n2)cc2cc(OC)ccc21 | 5 | -0.73
CC(C)(C)c1csc(CN2CCOC[C@@H]2CC(=O)c2ccco2)n1 | -5 | 0.62
CC(=O)N(CC(=O)N(Cc1ccco1)C[C@H]1CCCO1)CC(C)C | -4 | 0.59
O=C(C1CCC(F)(F)CC1)N1CCO[C@H](c2ccc(C(F)(F)F)cc2)C1 | -2 | 0.39
c1cn(C[C@@H]2CCCO2)c(-c2c[nH]cn2)n1 | -10 | 1.27

Structure (SMILES) | % Inhibition [%] | Z score
COC[C@H]1CN(C(=O)NCc2oc3ccccc3c2C)CCO1 | -3 | 0.57
N#Cc1nnc2ccccc2c1N1CC[C@H](OCCN2CCCCC2)C1 | -3 | 0.31
Cn1cc(Cl)cc1C(=O)N1CC[C@](C)(O)[C@H](O)C1 | 2 | -0.21
COc1nc(C)ccc1C(=O)N1CCOCC1C1CCCC1=O (stereo not given) | -4 | 0.47
COc1ccc(Cl)cc1N1CCN(Cc2ccc(C(=O)NCc3cccc(C(F)(F)F)c3)o2)CC1 | -1 | 0.21
CC(C)(C)c1ccc(-c2ccc(C(=O)N3CC[C@H](NS(C)(=O)=O)C3)o2)cc1 | -6 | 1.03
CCC(=O)Nc1cc(C(=O)OCc2ccc(C(=O)Oc3ccccc3)cc2)ccc1C | -5 | 0.68
Cc1ccsc1CN(Cc1ccc(F)cc1)C(=O)CN(CC(C)C)C(=O)COc1ccc(Cl)cc1 | -7 | 1.01
CCN(Cc1cnn(CC)c1)c1ncnc2ccsc12 | 7 | -0.92
CCn1nc(CC(C)C)cc1C(=O)N1CCNC(=O)[C@@H]1CCO | 9 | -1.2
CCc1cc(N2CCN(c3ccc(C(=O)O)nn3)CC2)ncn1 | -10 | 1.18
COc1ccc(N(C)C(=S)Oc2ccc(C(=O)Nc3ccccc3)cc2)cc1 | -31 | 3.63
Cc1cc(CC(=O)Nc2csc(N3CCCCC3)n2)n[nH]1 | 5 | -0.55
CCCn1cc(C(=O)N2CC[C@@H]3OCc4cccc(c4)Oc4cc(ccc4C)C(=O)N(C)CC(=O)N[C@@H]3C2)c(C)n1 | 7 | -0.98
Cc1cc(COCC(=O)N[C@@H]2CC=CCC2)on1 | -9 | 1.72
O=C(NC(c1ccccc1)c1ccccc1)N1CCC[C@H](Oc2ccncn2)C1 | 1 | -0.14
Cc1nc(CCCC(=O)NC(C)(C)c2ccc3c(c2)OCO3)cs1 | -7 | 0.71
C=CCO[C@@H](C)C(=O)Nc1cncc2ccccc12 | -3 | 0.34
Cc1n[nH]c(C)c1CCC(=O)N1CC[C@]2(CC(=O)NC2=O)C1 | -11 | 0.98
